Results are given in words; binding and its absence hold for the method and conditions named. Some entries that bind do so weakly or less than the wild type. Blank lines part the entries; values can stand above or below the molecule they belong to.
Assays:
Experiment in all cases: two-hybrid; ProQuest two-hybrid system, yeast strain MaV203 double-transformed with bait (pDEST32) and prey (pDEST22); growth on SC-Leu-Trp plates lacking histidine with 10, 25, 50 mM 3-aminotriazol, assessed after 2-5 days; for homodimers both copies carried the mutation
[1] = target: human diamin acetyltransferase 1 (SAT1), Ser-149 Alanine mutant (human) (UniProt P21673)
[2] = target: human diamin acetyltransferase 1 (SAT1), wild-type (human) (UniProt P21673)
[3] = target: human diamin acetyltransferase 1 (SAT1), Ser-149 Glutamate mutant (human) (UniProt P21673)
DffB = target: T1, DffB (UniProt O54788)
T1 sequence: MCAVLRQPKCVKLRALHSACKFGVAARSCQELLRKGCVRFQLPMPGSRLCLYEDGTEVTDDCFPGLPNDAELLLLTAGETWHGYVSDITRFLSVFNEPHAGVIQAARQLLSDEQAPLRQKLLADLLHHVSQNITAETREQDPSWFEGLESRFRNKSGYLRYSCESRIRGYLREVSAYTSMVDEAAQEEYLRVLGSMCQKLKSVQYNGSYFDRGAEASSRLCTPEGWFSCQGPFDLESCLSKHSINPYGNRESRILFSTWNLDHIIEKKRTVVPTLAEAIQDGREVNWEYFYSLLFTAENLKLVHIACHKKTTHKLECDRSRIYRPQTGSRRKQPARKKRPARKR

Protein sequences, listed by entry. Tags and fused reporters are not part of them. Lines headed by an entry give the natural chain unless they say otherwise; changes in a name come on top. Chains listed by the source or under a name are the forms on record and can include a tag or linker.
UniProt P21673: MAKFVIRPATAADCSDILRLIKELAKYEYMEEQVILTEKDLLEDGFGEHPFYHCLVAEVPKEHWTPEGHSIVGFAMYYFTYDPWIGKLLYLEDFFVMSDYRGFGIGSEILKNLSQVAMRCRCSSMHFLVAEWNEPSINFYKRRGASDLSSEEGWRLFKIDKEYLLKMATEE
human diamin acetyltransferase 1 (SAT1), Ser-149 Alanine mutant (P21673, form named): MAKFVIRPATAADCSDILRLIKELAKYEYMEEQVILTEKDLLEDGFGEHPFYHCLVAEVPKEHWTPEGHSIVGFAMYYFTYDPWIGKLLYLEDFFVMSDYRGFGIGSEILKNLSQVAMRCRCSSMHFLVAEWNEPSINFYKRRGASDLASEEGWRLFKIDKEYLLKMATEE
human diamin acetyltransferase 1 (SAT1), Ser-149 Glutamate mutant (P21673, form named): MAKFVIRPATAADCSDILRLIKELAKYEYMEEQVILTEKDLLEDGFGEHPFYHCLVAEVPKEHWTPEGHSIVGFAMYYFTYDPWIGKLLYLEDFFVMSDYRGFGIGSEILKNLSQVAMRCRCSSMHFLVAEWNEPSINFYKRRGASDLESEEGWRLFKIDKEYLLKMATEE

[4] = target: yeast Adenine phosphoribosyltransferase (APT1), wild-type (yeast) (UniProt P49435)

Molecule: human diamin acetyltransferase 1 (SAT1), Ser-149 Alanine mutant (from UniProt P21673 1-171) (enzyme)
- binding [1]: no binding

B1: Mouse DNA fragmentation factor A (DffA), wild-type (protein, UniProt O54786 1-331)
chain: MELSRGASAPDPDDVRPLKPCLLRRNHSRDQHGVAASSLEELRSKACELLAIDKSLTPITLVLAEDGTIVDDDDYFLCLPSNTKFVALACNEKWIYNDSDGGTAWVSQESFEADEPDSRAGVKWKNVARQLKEDLSSIILLSEEDLQALIDIPCAELAQELCQSCATVQGLQSTLQQVLDQREEARQSKQLLELYLQALEKEGNILSNQKESKAALSEELDAVDTGVGREMASEVLLRSQILTTLKEKPAPELSLSSQDLESVSKEDPKALAVALSWDIRKAETVQQACTTELALRLQQVQSLHSLRNLSARRSPLPGEPQRPKRAKRDSS
- binding (DffB): binds

B2: Mouse DNA fragmentation factor A (DffA), Thr-68 Glutamate mutant (protein, UniProt O54786 1-331)
chain: MELSRGASAPDPDDVRPLKPCLLRRNHSRDQHGVAASSLEELRSKACELLAIDKSLTPITLVLAEDGEIVDDDDYFLCLPSNTKFVALACNEKWIYNDSDGGTAWVSQESFEADEPDSRAGVKWKNVARQLKEDLSSIILLSEEDLQALIDIPCAELAQELCQSCATVQGLQSTLQQVLDQREEARQSKQLLELYLQALEKEGNILSNQKESKAALSEELDAVDTGVGREMASEVLLRSQILTTLKEKPAPELSLSSQDLESVSKEDPKALAVALSWDIRKAETVQQACTTELALRLQQVQSLHSLRNLSARRSPLPGEPQRPKRAKRDSS
- binding (DffB): no binding

B3: Mouse DNA fragmentation factor A (DffA), Thr-68 Alanine mutant (protein, UniProt O54786 1-331)
chain: MELSRGASAPDPDDVRPLKPCLLRRNHSRDQHGVAASSLEELRSKACELLAIDKSLTPITLVLAEDGAIVDDDDYFLCLPSNTKFVALACNEKWIYNDSDGGTAWVSQESFEADEPDSRAGVKWKNVARQLKEDLSSIILLSEEDLQALIDIPCAELAQELCQSCATVQGLQSTLQQVLDQREEARQSKQLLELYLQALEKEGNILSNQKESKAALSEELDAVDTGVGREMASEVLLRSQILTTLKEKPAPELSLSSQDLESVSKEDPKALAVALSWDIRKAETVQQACTTELALRLQQVQSLHSLRNLSARRSPLPGEPQRPKRAKRDSS
- binding (DffB): binds

Continued, values first:

- binding [2]: binds
Molecule: human diamin acetyltransferase 1 (SAT1), wild-type (from UniProt P21673 1-171) (enzyme)

- binding [3]: binds
Molecule: human diamin acetyltransferase 1 (SAT1), Ser-149 Glutamate mutant (from UniProt P21673 1-171) (enzyme)

- binding [4]: binds
B4: yeast Adenine phosphoribosyltransferase (APT1), wild-type (enzyme, UniProt P49435 1-187)
chain: MSIASYAQELKLALHQYPNFPSEGILFEDFLPIFRNPGLFQKLIDAFKLHLEEAFPEVKIDYIVGLESRGFLFGPTLALALGVGFVPVRKAGKLPGECFKATYEKEYGSDLFEIQKNAIPAGSNVIIVDDIIATGGSAAAAGELVEQLEANLLEYNFVMELDFLKGRSKLNAPVFTLLNAQKEALKK
